Reference: the supplement of paper PMC7125110
± gives the standard error. This sample is rich in variants without activity.

B1: glmS ribozyme (parent)
chain: AUAAAAGCGCCAGAACUACAGAAAUGUAGUUGACGAGGAGGAGGUUUAUCGAAUUUUCGGCGGAUGCCUCCAAA

What was measured:
Conditions in all cases: with glucosamine-6-phosphate
glucosamine-6-phosphate [1] = variants of: B1; experiment: self-cleavage kobs at 40 uM GlcN6P; higher = faster cleavage; RNA array
In short: (§1)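 The measurements used barcoded ribozyme variants on sequenced MiSeq chips, transcribed in situ by E. coli RNA polymerase and tracked at 37 °C with a hybridised Cy3 probe. Glucosamine-6-phosphate, 40 μM to 10 mM in HEPES/KCl/Mg(OAc)2 buffer, was flowed in while tiles were imaged over ~14 h. Baseline-normalised signals, also normalised to non-cleaving reference variants, gave per-tile medians that were fit to one- or two-exponential decays for kobs. kcat and KM resulted from weighted Michaelis–Menten fits across concentrations.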

glucosamine-6-phosphate [2] = variants of: B1; experiment: self-cleavage kobs at 10000 uM GlcN6P; higher = faster cleavage; RNA array
In short: as §1

glucosamine-6-phosphate [3] = variants of: B1; experiment: self-cleavage kobs at 640 uM GlcN6P; higher = faster cleavage; RNA array
In short: as §1

glucosamine-6-phosphate [4] = variants of: B1; experiment: self-cleavage kobs at 160 uM GlcN6P; higher = faster cleavage; RNA array
In short: as §1

glucosamine-6-phosphate [5] = variants of: B1; experiment: self-cleavage kobs at 2500 uM GlcN6P; higher = faster cleavage; RNA array
In short: as §1

| Variant | self-cleavage kobs at 40 uM GlcN6P (glucosamine-6-phosphate [1]) [s⁻¹] | self-cleavage kobs at 10000 uM GlcN6P (glucosamine-6-phosphate [2]) [s⁻¹] | self-cleavage kobs at 640 uM GlcN6P (glucosamine-6-phosphate [3]) [s⁻¹] | self-cleavage kobs at 160 uM GlcN6P (glucosamine-6-phosphate [4]) [s⁻¹] | self-cleavage kobs at 2500 uM GlcN6P (glucosamine-6-phosphate [5]) [s⁻¹] |
| --- | --- | --- | --- | --- | --- |
| C19A G59U | < 1e-05 | 3.11e-05 ± 1.5e-05 |  |  |  |
| U31G U54G | 0.000298 ± 5.4e-05 | 0.0119 ± 0.0031 | 0.00263 ± 0.00063 | 0.000493 ± 8.5e-05 | 0.00445 ± 0.00094 |
| G32U G38C C50U | < 1e-05 | < 1e-05 |  |  |  |
| A15G G32U G43A U45A C50A C58G C71G | < 1e-05 | < 1e-05 | < 1e-05 |  | < 1e-05 |
| U30A G37C A64G | < 1e-05 |  |  |  |  |
| G35C A48G A52C C70G | < 1e-05 |  |  |  |  |
| G35C G59U | < 1e-05 | < 1e-05 | < 1e-05 | < 1e-05 | < 1e-05 |
| C34U G60U | < 1e-05 | < 1e-05 | < 1e-05 | < 1e-05 | < 1e-05 |
| G32C G37C A48U G59C | < 1e-05 |  |  |  |  |
| G32C U56A C71A | < 1e-05 | 3.09e-05 ± 1.5e-05 |  |  |  |
| U31G C61G | < 1e-05 | < 1e-05 | < 1e-05 | < 1e-05 |  |
| G35A G66A | < 1e-05 | < 1e-05 |  |  |  |
| A14C G43A | < 1e-05 |  |  |  |  |
| U30G U56A | 0.000125 ± 1.6e-05 | 0.00771 ± 0.0011 | 0.00146 ± 0.00024 | 0.000498 ± 0.0001 | 0.003 ± 0.00057 |
| C16U G38C A48G C50U U55G | < 1e-05 |  |  |  |  |
| A14U A48C G51C U65G | < 1e-05 | < 1e-05 |  |  |  |
| G32U A33C G59U | < 1e-05 |  | < 1e-05 | < 1e-05 |  |
| A36G U45G | < 1e-05 | < 1e-05 | < 1e-05 | < 1e-05 | < 1e-05 |
| C16A A39U G51U | < 1e-05 |  |  |  |  |
| A36G A52U | < 1e-05 | < 1e-05 | < 1e-05 | < 1e-05 | < 1e-05 |
| G37C U54A U69G | < 1e-05 |  |  |  |  |
| A15G G29C C61G | < 1e-05 | < 1e-05 |  |  |  |
| A14C G62A | < 1e-05 | < 1e-05 | < 1e-05 |  |  |
| G35C G37C G51U | < 1e-05 |  |  |  |  |
| G29A C34U U47G A48G C67G | 0.000265 ± 0.0001 | 7.2e-05 ± 3.2e-05 |  |  |  |

| Variant | self-cleavage kobs at 40 uM GlcN6P (glucosamine-6-phosphate [1]) [s⁻¹] | self-cleavage kobs at 10000 uM GlcN6P (glucosamine-6-phosphate [2]) [s⁻¹] | self-cleavage kobs at 640 uM GlcN6P (glucosamine-6-phosphate [3]) [s⁻¹] | self-cleavage kobs at 160 uM GlcN6P (glucosamine-6-phosphate [4]) [s⁻¹] | self-cleavage kobs at 2500 uM GlcN6P (glucosamine-6-phosphate [5]) [s⁻¹] |
| --- | --- | --- | --- | --- | --- |
| G35A G63U | < 1e-05 | < 1e-05 | < 1e-05 | < 1e-05 | < 1e-05 |
| A15C G59C | < 1e-05 | < 1e-05 | < 1e-05 | < 1e-05 | < 1e-05 |
| G37A U56A | 1.92e-05 ± 6.8e-06 | 0.000962 ± 0.00011 |  | 4.84e-05 ± 1.8e-05 |  |
| C34A C58G | < 1e-05 | < 1e-05 | < 1e-05 | < 1e-05 | < 1e-05 |
| A33U U57A G62U | < 1e-05 | < 1e-05 |  |  | < 1e-05 |
| A15U A33U C61G | < 1e-05 |  |  |  |  |
| A14U A64U C71U | < 1e-05 |  |  |  |  |
| A33G A42G | < 1e-05 | < 1e-05 | < 1e-05 | < 1e-05 | < 1e-05 |
| A14U A48C U55A | < 1e-05 |  |  |  |  |
| A14U U30C A33C C50U | < 1e-05 |  |  |  |  |
| G32A U47C A48G C71U | < 1e-05 |  |  |  |  |
| G32C U45G U65A | < 1e-05 | < 1e-05 | < 1e-05 |  |  |
| U30G A39G C58G G59A | < 1e-05 |  |  |  |  |
| A14G G43C | < 1e-05 |  | < 1e-05 | < 1e-05 |  |
| A14U C61U U65G | < 1e-05 |  |  |  |  |
| G35A A39G G44U | < 1e-05 |  | < 1e-05 |  | < 1e-05 |
| C16U G29U | 0.000315 ± 2.9e-05 |  |  |  |  |
| G29C A33U A48C U55A | < 1e-05 | < 1e-05 |  |  |  |
| A36C A48G | < 1e-05 | < 1e-05 |  |  |  |
| G35A A53U | < 1e-05 | < 1e-05 | < 1e-05 | < 1e-05 |  |
| C34U C58G C68U | 0.000265 ± 9.2e-05 |  |  |  |  |
| C16G G44U | < 1e-05 | 2.26e-05 ± 1e-05 |  | < 1e-05 |  |
| C34U G35U | < 1e-05 |  |  |  |  |
| C16U U49C | < 1e-05 |  | < 1e-05 | < 1e-05 | < 1e-05 |
